Measured values taken from publication PMC4336329 (PLoS ONE, 2015).
Screen size: about 310,000 compounds; about 14,000 (4.5%) showed an effect of 50% or more. Effects have a minus sign here. This is one part of the list.

target: human ether-à-go-go-related gene (hERG) potassium channel (human, UniProt Q12809); test: primary screen, population patch clamp on CHO cells stably expressing hERG
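Also: peak tail current of the secondary pulse compared with the same well before compound.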

Chain of human ether-à-go-go-related gene (hERG) potassium channel (Q12809 whole entry, looked up): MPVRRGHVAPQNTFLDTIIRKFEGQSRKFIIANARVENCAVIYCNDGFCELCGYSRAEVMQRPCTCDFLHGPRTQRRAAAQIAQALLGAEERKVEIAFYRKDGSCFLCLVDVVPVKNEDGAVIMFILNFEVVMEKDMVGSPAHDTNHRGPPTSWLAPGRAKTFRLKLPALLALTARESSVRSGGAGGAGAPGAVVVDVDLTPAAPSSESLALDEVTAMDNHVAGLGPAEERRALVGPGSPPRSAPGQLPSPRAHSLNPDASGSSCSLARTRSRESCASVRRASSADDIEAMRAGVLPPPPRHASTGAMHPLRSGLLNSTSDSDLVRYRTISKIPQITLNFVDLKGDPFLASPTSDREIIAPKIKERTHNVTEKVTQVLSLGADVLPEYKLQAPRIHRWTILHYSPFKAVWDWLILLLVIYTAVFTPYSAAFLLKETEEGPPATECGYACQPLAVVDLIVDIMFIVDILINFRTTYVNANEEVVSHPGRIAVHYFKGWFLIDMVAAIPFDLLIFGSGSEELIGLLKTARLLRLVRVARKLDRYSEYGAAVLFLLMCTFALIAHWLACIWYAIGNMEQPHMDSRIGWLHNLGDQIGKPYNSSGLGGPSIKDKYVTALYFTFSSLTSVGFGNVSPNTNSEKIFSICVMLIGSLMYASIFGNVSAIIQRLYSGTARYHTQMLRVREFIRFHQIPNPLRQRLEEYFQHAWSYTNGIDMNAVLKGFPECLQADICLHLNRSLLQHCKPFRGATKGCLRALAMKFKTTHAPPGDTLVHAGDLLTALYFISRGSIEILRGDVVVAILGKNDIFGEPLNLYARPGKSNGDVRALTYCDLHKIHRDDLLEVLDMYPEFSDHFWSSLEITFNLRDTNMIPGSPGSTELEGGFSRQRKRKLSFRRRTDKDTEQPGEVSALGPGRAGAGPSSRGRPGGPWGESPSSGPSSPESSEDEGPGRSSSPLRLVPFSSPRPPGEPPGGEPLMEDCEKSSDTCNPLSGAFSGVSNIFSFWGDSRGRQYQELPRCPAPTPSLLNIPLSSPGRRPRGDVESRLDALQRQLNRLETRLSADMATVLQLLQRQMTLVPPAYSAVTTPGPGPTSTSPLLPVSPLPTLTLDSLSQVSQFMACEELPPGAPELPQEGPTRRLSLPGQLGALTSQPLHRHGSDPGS

SMILES | hERG current change (%, negative = inhibition) at 10uM [%]
CCCCc1c(O)nc(SCC(=O)c2ccccc2)[nH]c1=O | -2.4
CCCn1c(SCC(=O)N(CC)CC)nnc1-c1ccncc1 | 13.3
Cc1sc(N)nc1-c1ccc2c(c1)OCCO2 | -9.45
COc1cccc(S(=O)(=O)NCc2ccc(C(=O)Nc3ccc(C)cc3)cc2)c1 | 4.4
Cc1ccc(S(=O)(=O)NCC(=O)OCc2nnc(-c3ccccc3)o2)cc1C | -23.3
CC(=O)c1cccc(NC(=O)C(=O)Nc2cccc3ccccc23)c1 | 13.3
O=C1CCN(Cc2ccccc2)N1 | 21.9
Cc1cc(NC(=O)CN2CCN(c3cccc(Cl)c3)CC2)no1 | 8.46
CCc1ccc2[nH]cc(S(=O)(=O)c3ccc(C)c(C)c3)c(=O)c2c1 | 16.8
O=C(CSc1ccc2nnc(-c3cccc(F)c3)n2n1)N1CCCc2ccccc21 | -36.9
C=CCNC(=S)NNC(=O)COc1ccc(Cl)cc1Cl | 2.93
Cc1ccc(CCNS(=O)(=O)c2ccc3c(c2)C(C)(C)C(=O)N3C)cc1 | -1.74
Cc1cc(C)nc(N2CCCC(C(=O)NCCc3cccc(F)c3)C2)n1 (stereo not drawn) | -3.84
CCCCCCC(O)(c1ccc(OC)cc1)C(CN1CCOCC1)c1ccccc1.Cl (stereo not drawn) | 5.12
Cl.NCCOc1ccc(C23CC4CC(CC(C4)C2)C3)cc1 | 25.7
COc1cc(C)c(Cl)cc1S(=O)(=O)NC1CC(C)(C)NC(C)(C)C1 | 18.6
O=C(c1ccccc1Cc1ccccc1)N1CCN(S(=O)(=O)c2ccccc2)CC1 | -6.88
CC(c1ccccc1C(O)(c1ccccc1)c1ccccc1)N(C)C (stereo not drawn) | -41.1
CN(C)CCc1c[nH]c2ccc(C[C@H]3COC(=O)N3)cc12 | -5.24
COc1ccccc1CCNC(=O)c1cc(-c2ccccn2)nc2ccc(Br)cc12 | 6.17
CCOC(=O)NCCc1c(C)nc2c(c(C)nn2C(C)(C)C)c1C | -6.99

SMILES | hERG current change (%, negative = inhibition) at 10uM [%]
Cn1c2c(c3cc([N+](=O)[O-])ccc31)CCCC2 | 4
Cc1ccc(C)c(NC(=O)CCN2C(=O)c3ccccc3C2=O)c1 | 13.6
O=C(Nc1c2c(nn1-c1ccccc1)CSC2)c1ccc(N2C(=O)CCC2=O)cc1 | 12.5
CC(C)CN1CCC(=O)N([C@H](CN=[N+]=[N-])Cc2ccccc2)CC1 | -22.9
COc1ccc(N2C(=O)CCC(C(=O)N3CCCCC3)C2c2ccc(F)cc2)cc1 (stereo not drawn) | 17.7
C[C@]12CCC3C(CC[C@H]4C[C@H](N)CC[C@]34C)C1CC[C@H]2O.Cl (stereo partly drawn) | 13.7
CCOC(=O)CN1C(=O)/C(=C2\SC(=S)N(NC(=O)c3cccnc3)C2=O)c2ccccc21 | 11.5
O=C(NCc1ccco1)C(c1cccs1)N(Cc1ccccc1)C(=O)Cn1nnc2ccccc21 (stereo not drawn) | -10.6
COc1ccc(Nc2cc(Nc3cccc(OC)c3)ncn2)cc1 | 19.9
CCOc1ccc(NS(=O)(=O)c2ccc(C(=O)N(C)Cc3cccc(OC)c3OC)cc2)cc1 | 6.95
COc1cccc(/C=N/NC(=O)CSCC(=O)Nc2ccccc2)c1O | 0.503
Oc1ccc(/C=N/N2CCCCC2)c(O)c1O | 13.3
CCC(C)(C)n1nnnc1CN(Cc1ccco1)Cc1cc2cc3c(cc2[nH]c1=O)OCO3 | -2.83
O=C(O)c1cn(-c2ccccc2)nc1-c1ccc(Cl)cc1 | -0.485
CCC(=O)Nc1cccc(C(=O)/C=C/c2cccs2)c1 | -3.34
CCc1nc(SCC(=O)NCC2CCCO2)c2oc3ccccc3c2n1 (stereo not drawn) | -20
COC(=O)C(Cc1ccc(OC(=O)c2ccc(C(F)(F)F)cc2)cc1)N1Cc2ccccc2C1=O (stereo not drawn) | 15.9
CCc1ccc(NC(=O)C(=O)NCc2ccccn2)cc1 | 5.21
O=C(O)c1ccc2c(c1)N(Cc1ccccc1)C(=O)c1ccccc1S2 | -1.04
COC(=O)Cc1[nH]nc2c1C1(C(=O)N(Cc3ccc(Cl)cc3)c3ccccc31)C(C#N)=C(N)O2 (stereo not drawn) | -1.3
COc1ccccc1-n1c(SCC(=O)N2CCOCC2)nc(O)c(Cc2ccccc2)c1=O | 17.4
